Consider 29 variants from the supplement of paper PMC7125110.

The labels stand for the following.
B1: glmS ribozyme (parent)
chain: AUAAAAGCGCCAGAACUACAGAAAUGUAGUUGACGAGGAGGAGGUUUAUCGAAUUUUCGGCGGAUGCCUCCAAA

± gives the standard error. Variants at the floor of the assay are shown more often than the library holds them. Bounds are passed on as bounds.

What all share (conditions): with glucosamine-6-phosphate
Variants of B1 are the subject of series [1]. The experiment in a line: self-cleavage kobs at 640 uM GlcN6P; higher = faster cleavage; RNA array. Put shortly:
(§1)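 Over ~14 h at 37 °C, tiles were imaged as glucosamine-6-phosphate (40 μM to 10 mM) in HEPES/KCl/Mg(OAc)2 buffer flowed across sequenced MiSeq chips. The chips carried barcoded ribozyme variants transcribed in situ by E. coli RNA polymerase and tracked with a hybridised Cy3 probe. After normalisation to baseline and to non-cleaving reference variants, one- or two-exponential decay fits of per-tile medians gave kobs. kcat and KM followed from weighted Michaelis–Menten fits across concentrations.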

In series [2] the parent is B1. The experiment in a line: self-cleavage kobs at 2500 uM GlcN6P; higher = faster cleavage; RNA array. The essentials: as §1
Series [3] covers variants of B1. The experiment in a line: self-cleavage kobs at 10000 uM GlcN6P; higher = faster cleavage; RNA array. Put shortly:
as §1

In series [4] the parent is B1. The series can be described thus: self-cleavage kobs at 160 uM GlcN6P; higher = faster cleavage; RNA array. The essentials:
as §1

In the case of A15G G60U A64G C70A, the “self-cleavage kobs at 640 uM GlcN6P” value with glucosamine-6-phosphate [1] is less than 1e-05 s⁻¹. The “self-cleavage kobs at 2500 uM GlcN6P” value with glucosamine-6-phosphate [2] was less than 1e-05 s⁻¹.
On to C16U A36C G38A, for which, in the series with glucosamine-6-phosphate [1], the “self-cleavage kobs at 640 uM GlcN6P” value was less than 1e-05 s⁻¹. Besides, the “self-cleavage kobs at 10000 uM GlcN6P” value in the series with glucosamine-6-phosphate [3] is less than 1e-05 s⁻¹.
For C16G G44U U69C C70U, the “self-cleavage kobs at 640 uM GlcN6P” value with glucosamine-6-phosphate [1] was less than 1e-05 s⁻¹. Also, the “self-cleavage kobs at 2500 uM GlcN6P” value in the series with glucosamine-6-phosphate [2] was less than 1e-05 s⁻¹. For the same variant, in the series with glucosamine-6-phosphate [3], the “self-cleavage kobs at 10000 uM GlcN6P” value was less than 1e-05 s⁻¹.
Regarding G29C U46G U57G, the “self-cleavage kobs at 640 uM GlcN6P” value with glucosamine-6-phosphate [1] is less than 1e-05 s⁻¹. For the same variant, the “self-cleavage kobs at 160 uM GlcN6P” value with glucosamine-6-phosphate [4] is less than 1e-05 s⁻¹. Moreover, in the series with glucosamine-6-phosphate [2], the “self-cleavage kobs at 2500 uM GlcN6P” value was less than 1e-05 s⁻¹.
Regarding G32A A48U U65C, the “self-cleavage kobs at 640 uM GlcN6P” value with glucosamine-6-phosphate [1] is less than 1e-05 s⁻¹.
G29U A33G: in the series with glucosamine-6-phosphate [1], the “self-cleavage kobs at 640 uM GlcN6P” value is less than 1e-05 s⁻¹. Also, the “self-cleavage kobs at 160 uM GlcN6P” value with glucosamine-6-phosphate [4] was less than 1e-05 s⁻¹. Besides, in the series with glucosamine-6-phosphate [3], the “self-cleavage kobs at 10000 uM GlcN6P” value was less than 1e-05 s⁻¹.
For the variant A15G A36U C71G, in the series with glucosamine-6-phosphate [1], the “self-cleavage kobs at 640 uM GlcN6P” value was less than 1e-05 s⁻¹.
Still for that read-out and setting: the result for A23C C68U reads 0.00205 ± 0.00047 s⁻¹; that for A15U U31C U55G G63U, less than 1e-05 s⁻¹.
Take G32U C71G: the “self-cleavage kobs at 640 uM GlcN6P” value in the series with glucosamine-6-phosphate [1] came to 6.13e-05 ± 1.6e-05 s⁻¹. Moreover, the “self-cleavage kobs at 2500 uM GlcN6P” value with glucosamine-6-phosphate [2] turned out to be 7.51e-05 ± 9.8e-06 s⁻¹.
On to G29A A48U G62U, for which, in the series with glucosamine-6-phosphate [1], the “self-cleavage kobs at 640 uM GlcN6P” value is less than 1e-05 s⁻¹. The “self-cleavage kobs at 2500 uM GlcN6P” value in the series with glucosamine-6-phosphate [2] is less than 1e-05 s⁻¹.
For A14U C16A G66A, the “self-cleavage kobs at 640 uM GlcN6P” value in the series with glucosamine-6-phosphate [1] came out at 3.92e-05 ± 1.7e-05 s⁻¹. The “self-cleavage kobs at 2500 uM GlcN6P” value with glucosamine-6-phosphate [2] is 0.000107 ± 2.6e-05 s⁻¹.
As to U31C A48G G60A, the “self-cleavage kobs at 640 uM GlcN6P” value with glucosamine-6-phosphate [1] was less than 1e-05 s⁻¹. The “self-cleavage kobs at 2500 uM GlcN6P” value with glucosamine-6-phosphate [2] is less than 1e-05 s⁻¹.
C16A A42U U55A: the “self-cleavage kobs at 640 uM GlcN6P” value with glucosamine-6-phosphate [1] is less than 1e-05 s⁻¹. In addition, the “self-cleavage kobs at 160 uM GlcN6P” value with glucosamine-6-phosphate [4] was less than 1e-05 s⁻¹. Besides, the “self-cleavage kobs at 2500 uM GlcN6P” value with glucosamine-6-phosphate [2] is less than 1e-05 s⁻¹.
For the variant G13C G59A C61U C67U, the “self-cleavage kobs at 640 uM GlcN6P” value in the series with glucosamine-6-phosphate [1] is less than 1e-05 s⁻¹.
In the case of A14U U57G G62A, the “self-cleavage kobs at 640 uM GlcN6P” value with glucosamine-6-phosphate [1] is less than 1e-05 s⁻¹.
On to G13A U69G, for which the “self-cleavage kobs at 640 uM GlcN6P” value in the series with glucosamine-6-phosphate [1] amounted to 7.5e-05 ± 1.3e-05 s⁻¹. Moreover, the “self-cleavage kobs at 160 uM GlcN6P” value in the series with glucosamine-6-phosphate [4] came to 4.26e-05 ± 1.5e-05 s⁻¹. Besides, the “self-cleavage kobs at 2500 uM GlcN6P” value with glucosamine-6-phosphate [2] stood at 6.99e-05 ± 1.7e-05 s⁻¹.
As for A14U A33C C68U C70U, the “self-cleavage kobs at 640 uM GlcN6P” value in the series with glucosamine-6-phosphate [1] is less than 1e-05 s⁻¹. Further, the “self-cleavage kobs at 2500 uM GlcN6P” value with glucosamine-6-phosphate [2] is less than 1e-05 s⁻¹.
Regarding A14G U31A G41A C71U, in the series with glucosamine-6-phosphate [1], the “self-cleavage kobs at 640 uM GlcN6P” value turned out to be 0.000186 ± 7.9e-05 s⁻¹. The “self-cleavage kobs at 2500 uM GlcN6P” value in the series with glucosamine-6-phosphate [2] came out at 0.000396 ± 0.00011 s⁻¹.
With C19A G38A G63U, the “self-cleavage kobs at 640 uM GlcN6P” value in the series with glucosamine-6-phosphate [1] is less than 1e-05 s⁻¹.
As for A33C G37A U56C, the “self-cleavage kobs at 640 uM GlcN6P” value in the series with glucosamine-6-phosphate [1] was less than 1e-05 s⁻¹.
G32C G63A U65A: the “self-cleavage kobs at 640 uM GlcN6P” value in the series with glucosamine-6-phosphate [1] is less than 1e-05 s⁻¹. Also, the “self-cleavage kobs at 2500 uM GlcN6P” value with glucosamine-6-phosphate [2] is less than 1e-05 s⁻¹.
Take C16G C34G A42C G43A: in the series with glucosamine-6-phosphate [1], the “self-cleavage kobs at 640 uM GlcN6P” value was less than 1e-05 s⁻¹.
Consider A14G C34U U54G C58G U69G, for which the “self-cleavage kobs at 640 uM GlcN6P” value with glucosamine-6-phosphate [1] is 0.000551 ± 0.0002 s⁻¹.
Consider C16A G38A G66A, for which, in the series with glucosamine-6-phosphate [1], the “self-cleavage kobs at 640 uM GlcN6P” value was less than 1e-05 s⁻¹. Besides, the “self-cleavage kobs at 2500 uM GlcN6P” value in the series with glucosamine-6-phosphate [2] is less than 1e-05 s⁻¹.
With A15G C34U A64G, the “self-cleavage kobs at 640 uM GlcN6P” value with glucosamine-6-phosphate [1] was less than 1e-05 s⁻¹. Moreover, the “self-cleavage kobs at 160 uM GlcN6P” value in the series with glucosamine-6-phosphate [4] is less than 1e-05 s⁻¹. In addition, the “self-cleavage kobs at 2500 uM GlcN6P” value with glucosamine-6-phosphate [2] was less than 1e-05 s⁻¹.
For the variant A14U C70U C71G, the “self-cleavage kobs at 640 uM GlcN6P” value in the series with glucosamine-6-phosphate [1] was 6.53e-05 ± 1.7e-05 s⁻¹. Moreover, the “self-cleavage kobs at 2500 uM GlcN6P” value with glucosamine-6-phosphate [2] worked out at 3.73e-05 ± 1.3e-05 s⁻¹. Moreover, in the series with glucosamine-6-phosphate [3], the “self-cleavage kobs at 10000 uM GlcN6P” value worked out at 3.81e-05 ± 1.8e-05 s⁻¹.
As for U31C G62U C68G, the “self-cleavage kobs at 640 uM GlcN6P” value in the series with glucosamine-6-phosphate [1] was less than 1e-05 s⁻¹. For the same variant, the “self-cleavage kobs at 160 uM GlcN6P” value with glucosamine-6-phosphate [4] was less than 1e-05 s⁻¹. The “self-cleavage kobs at 2500 uM GlcN6P” value with glucosamine-6-phosphate [2] was less than 1e-05 s⁻¹.
For G13A U45C C50U C71G, the “self-cleavage kobs at 640 uM GlcN6P” value with glucosamine-6-phosphate [1] is less than 1e-05 s⁻¹. The “self-cleavage kobs at 160 uM GlcN6P” value with glucosamine-6-phosphate [4] is less than 1e-05 s⁻¹. Besides, in the series with glucosamine-6-phosphate [2], the “self-cleavage kobs at 2500 uM GlcN6P” value is less than 1e-05 s⁻¹.
